Drawing on the RNAGym collection of RNA variant scans (doi:10.7554/elife.90254), this text covers self-cleavage for 56 variants.

Read counts are not given, so values of variants with three or more changes are uncertain.

First the molecules themselves.
B1: LINE1-mini (parent)
chain: GGCAGAGCUCAACACAGCGUGGCAAAGUGGCUGUGGCUAGACUGCC

The data set covers variants of B1. The data set can be described thus: self-cleavage, relative activity (ratio to wild type); higher = more cleavage; in vitro, sequencing; the parent is a self-cleaving ribozyme.
Consider GGCAGAGCUCAACACAGCGUGGCAAUGUGCCUCUGGCUAGACUGCC [A26U G30C G33C], for which the self-cleavage is 0.29.

For GGCAGAGCUCAACACAGCGUGGCAACGUGGUAGUGUCUAGACUGCU [A26C C31U U32A G36U C46U], the self-cleavage was 0.13.

Take GGCAGAGCUCAACACAGCGUGGCAUAGUGGCUGUGGCAAGACUGGC [A25U U38A C45G]: the self-cleavage was found to be 0.22.

As for GGCAGAGCUCAACACAGCGUGGCAAUGUGUCUGUGGCUAGACUGAC [A26U G30U C45A], the self-cleavage was 0.27.

GGCAGAGCUCAACACAGCGUGGCAAGGUGGCUGUCGCUAGACAACU [A26G G35C U43A G44A C46U]: the self-cleavage turned out to be 0.01.

Take GGCAGAGCUCAACACAGCGUGGCAACGUGGCUGUUGCUAUACUGCC [A26C G35U G40U]: the self-cleavage turned out to be 0.05.

Regarding GGCAGAGCUCAACACAGCGUGGCAAGCUGGCUGUCGCUCGACUGCU [A26G G27C G35C A39C C46U], the self-cleavage came to 0.01.

GGCAGAGCUCAACACAGCGUGGCAACGUGGCUGUGGCUAGACUACA [A26C G44A C46A]: the self-cleavage was 0.06.

As for GGCAGAGCUCAACACAGCGUGGCAACGCGGCUAUGGCCAGACUGUC [A26C U28C G33A U38C C45U], the self-cleavage came out at 0.22.

On to GGCAGAGCUCAACACAGCGUGGCAUAGUGUCUGUGGCUAGACCGCC [A25U G30U U43C], for which the self-cleavage was found to be 0.22.

Regarding GGCAGAGCUCAACACAGCGUGGCAACGUGGCUCUGACUAGACUGCC [A26C G33C G36A], the self-cleavage is 0.04.

With GGCAGAGCUCAACACAGCGUGGCAUAGGGGCUGUGGUUAGACUGUC [A25U U28G C37U C45U], the self-cleavage was found to be 0.01.

With GGCAGAGCUCAACACAGCGUGGCAAAAGGGCAGUGGUUAGACUGCC [G27A U28G U32A C37U], the self-cleavage worked out at 0.12.

In the case of GGCAGAGCUCAACACAGCGUGGCAAGGUGACUGUGGCUAGACUUCC [A26G G30A G44U], the self-cleavage came out at 0.07.

As for GGCAGAGCUCAACACAGCGUGGCAAAAUGACCGUGGCUAGACUGCC [G27A G30A U32C], the self-cleavage was 0.18.

Consider GGCAGAGCUCAACACAGCGUGGCAAGGUGUCUUUGGCUAGACUGCC [A26G G30U G33U], for which the self-cleavage was found to be 0.07.

As to GGCAGAGCUCAACACAGCGUGGCAAUUUGGCUGUGGCUAGACUACC [A26U G27U G44A], the self-cleavage is 1.83.

For the variant GGCAGAGCUCAACACAGCGUGGCAUAGUGGCUGAGGCUAAACUGCC [A25U U34A G40A], the self-cleavage is 0.

As to GGCAGAGCUCAACACAGCGUGGCAAGGUGGCUGUGGCUACACUGUC [A26G G40C C45U], the self-cleavage was found to be 0.04.

With GGCAGAGCUCAACACAGCGUGGCAAUAUGGCUGUAGCUAGACUGCC [A26U G27A G35A], the self-cleavage turned out to be 0.17.

For the variant GGCAGAGCUCAACACAGCGUGGCAAUGUGGCUAUUGCUAGACUGAC [A26U G33A G35U C45A], the self-cleavage turned out to be 0.06.

As to GGCAGAGCUCAACACAGCGUGGCAUAUUGACCGUGGCUAGACUGCC [A25U G27U G30A U32C], the self-cleavage turned out to be 1.09.

For GGCAGAGCUCAACACAGCGUGGCAAGGUGGCUGUGGCUAGAGUGCG [A26G C42G C46G], the self-cleavage worked out at 0.07.

In the case of GGCAGAGCUCAACACAGCGUGGCAUAGUAGCUGUCGUUAGACUGGU [A25U G29A G35C C37U C45G C46U], the self-cleavage was determined as 0.01.

As to GGCAGAGCUCAACACAGCGUGGCAAUGUGGUAGUGGCUAGACUGCC [A26U C31U U32A], the self-cleavage is 0.05.

Consider GGCAGAGCUCAACACAGCGUGGCAAUGUGCCUGUGGCUAGAGUGAC [A26U G30C C42G C45A], for which the self-cleavage was 0.02.

Consider GGCAGAGCUCAACACAGCGUGGCAAGAUUGCUGUGGCUAGACUGCC [A26G G27A G29U], for which the self-cleavage came out at 0.7.

Consider GGCAGAGCUCAACACAGCGUGGCAUAGCGGCUGUGGCUAGUCAGCC [A25U U28C A41U U43A], for which the self-cleavage was found to be 0.03.

As to GGCAGAGCUCAACACAGCGUGGCAAUUUCGCUGUGGCUAGACCGCC [A26U G27U G29C U43C], the self-cleavage was determined as 0.02.

For the variant GGCAGAGCUCAACACAGCGUGGCAAAAUGGCUCUGGGUAGACUGCC [G27A G33C C37G], the self-cleavage was determined as 0.02.

For the variant GGCAGAGCUCAACACAGCGUGGCAUAGUGUCUGCGGCUAGACUGCC [A25U G30U U34C], the self-cleavage came to 0.05.

Turning to GGCAGAGCUCAACACAGCGUGGCAAGGUGGCGGUGGCUAGACCGCC [A26G U32G U43C], the self-cleavage stood at 0.15.

With GGCAGAGCUCAACACAGCGUGGCAAAAUUGCUGUGGCUAGACUGUC [G27A G29U C45U], the self-cleavage worked out at 2.6.

Take GGCAGAGCUCAACACAGCGUGGCAAUGUACAUGUGGCUAGACUGCC [A26U G29A G30C C31A]: the self-cleavage was found to be 0.58.

On to GGCAGAGCUCAACACAGCGUGGCAAGGUGGGUGUGGCUAGUCUGCC [A26G C31G A41U], for which the self-cleavage came to 0.06.

Take GGCAGAGCUCAACACAGCGUGGCAACGUGUCUGUGGCUUGACUGCC [A26C G30U A39U]: the self-cleavage was 1.6.

As for GGCAGAGCUCAACACAGCGUGGCAAGGAGGCUGUGGCUAUACUGCC [A26G U28A G40U], the self-cleavage was 0.14.

Consider GGCAGAGCUCAACACAGCGUGGCAAAAUUGUUGUGGCUGGACUGCC [G27A G29U C31U A39G], for which the self-cleavage amounted to 0.01.

As for GGCAGAGCUCAACACAGCGUGGCAACGUAGCUGUGACUAGAUUACU [A26C G29A G36A C42U G44A C46U], the self-cleavage is 0.03.

In the case of GGCAGAGCUCAACACAGCGUGGCAACGGGGCUGUGGCUAUACUUCC [A26C U28G G40U G44U], the self-cleavage was determined as 0.11.

Consider GGCAGAGCUCAACACAGCGUGGCAACGUGGCUGUGUCUAGAUUGCC [A26C G36U C42U], for which the self-cleavage is 0.06.

Consider GGCAGAGCUCAACACAGCGUGGCAAAAUGGCUGUGGAUAGAGUGCC [G27A C37A C42G], for which the self-cleavage is 0.01.

Consider GGCAGAGCUCAACACAGCGUGGCAAAAGGGCUGCGGCUAGACCGCC [G27A U28G U34C U43C], for which the self-cleavage amounted to 0.03.

Turning to GGCAGAGCUCAACACAGCGUGGCAAGGUGGCUAUGGGUAGACUGCC [A26G G33A C37G], the self-cleavage was determined as 0.02.

Regarding GGCAGAGCUCAACACAGCGUGGCAAUCUGGCCGUGGCUAGACUGCC [A26U G27C U32C], the self-cleavage is 0.03.

On to GGCAGAGCUCAACACAGCGUGGCAUAGUGGCUGUGGCAAGGCUGCG [A25U U38A A41G C46G], for which the self-cleavage was determined as 0.06.

Consider GGCAGAGCUCAACACAGCGUGGCAUAGUGGCUGUGGCUAGAUUGGC [A25U C42U C45G], for which the self-cleavage came out at 0.13.

GGCAGAGCUCAACACAGCGUGGCAAUGUGGCCGUGUCUAUAUAGCC [A26U U32C G36U G40U C42U U43A]: the self-cleavage was found to be 0.19.

With GGCAGAGCUCAACACAGCGUGGCAAUGUGGGUGUUGCUAGACUGCU [A26U C31G G35U C46U], the self-cleavage stood at 0.02.

For GGCAGAGCUCAACACAGCGUGGCAUAUUGGCUGUGGCUAAACUGCC [A25U G27U G40A], the self-cleavage worked out at 0.

As to GGCAGAGCUCAACACAGCGUGGCAAAAUGGCUGUGCCUAGACUUCC [G27A G36C G44U], the self-cleavage stood at 0.02.

With GGCAGAGCUCAACACAGCGUGGCAAAACGGCUGUGUCUAUACUGCC [G27A U28C G36U G40U], the self-cleavage turned out to be 0.19.

Take GGCAGAGCUCAACACAGCGUGGCAAGGUGGAUGUGGCUAGAAUGCU [A26G C31A C42A C46U]: the self-cleavage came to 0.03.

Take GGCAGAGCUCAACACAGCGUGGCAAGGUGGCUGUGGGUAGACUUCC [A26G C37G G44U]: the self-cleavage was found to be 0.02.

Consider GGCAGAGCUCAACACAGCGUGGCAACGUGGCUGUGGGUAGAUUGCC [A26C C37G C42U], for which the self-cleavage came to 0.03.

Turning to GGCAGAGCUCAACACAGCGUGGCAAAAUGGCUAUGGCUCGACUGCC [G27A G33A A39C], the self-cleavage is 0.05.
